# Test results from the supplement of paper PMC3334620.
# The full ranking holds about 33,000 sequences; the median of “E-score (-0.5 to 0.5)” is about -0.035, and the highest 2% start at about 0.35. The list shows a part of the results.
# Biological target: T1, Pdr3 (UniProt P33200)
# T1 sequence: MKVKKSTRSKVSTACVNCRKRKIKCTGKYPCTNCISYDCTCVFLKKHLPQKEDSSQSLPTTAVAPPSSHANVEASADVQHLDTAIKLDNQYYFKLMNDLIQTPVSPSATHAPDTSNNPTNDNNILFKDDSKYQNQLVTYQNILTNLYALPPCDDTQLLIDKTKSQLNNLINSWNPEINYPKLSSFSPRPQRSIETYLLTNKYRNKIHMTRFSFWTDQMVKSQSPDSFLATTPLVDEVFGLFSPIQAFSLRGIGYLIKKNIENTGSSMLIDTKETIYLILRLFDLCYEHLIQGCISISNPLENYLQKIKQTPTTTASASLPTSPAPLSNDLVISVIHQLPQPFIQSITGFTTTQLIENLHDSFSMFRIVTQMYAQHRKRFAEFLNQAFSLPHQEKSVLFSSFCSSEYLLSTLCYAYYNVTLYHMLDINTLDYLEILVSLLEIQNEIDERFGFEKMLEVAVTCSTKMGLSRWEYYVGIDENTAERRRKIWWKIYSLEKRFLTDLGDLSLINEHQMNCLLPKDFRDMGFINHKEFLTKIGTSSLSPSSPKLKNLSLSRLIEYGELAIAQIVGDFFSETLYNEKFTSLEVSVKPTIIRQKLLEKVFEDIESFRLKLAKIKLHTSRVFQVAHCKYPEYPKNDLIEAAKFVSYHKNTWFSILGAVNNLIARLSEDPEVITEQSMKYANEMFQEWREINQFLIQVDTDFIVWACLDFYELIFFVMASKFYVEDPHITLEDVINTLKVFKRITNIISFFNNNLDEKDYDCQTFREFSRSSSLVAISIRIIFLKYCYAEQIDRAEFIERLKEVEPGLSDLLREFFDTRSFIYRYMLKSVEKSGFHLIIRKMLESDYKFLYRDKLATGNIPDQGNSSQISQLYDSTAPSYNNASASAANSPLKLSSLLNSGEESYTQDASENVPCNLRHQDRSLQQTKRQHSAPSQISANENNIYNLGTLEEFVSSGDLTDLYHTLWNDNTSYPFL
# Assay: PBM E-score (8-mer binding enrichment) (E-score (-0.5 to 0.5)); higher = stronger / more preferred TF binding; most listed sequences are background and not binding sites
# Conditions: protein concentration: 200 nM; construct: GST-full length
# Method in brief: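 PURExpress in vitro transcription/translation supplied GST-tagged yeast transcription factors, either full-length or DNA-binding domain. Applied at about 100-200 nM to universal all-10-mer Agilent arrays double-stranded by primer extension, the bound protein was detected with fluorescent anti-GST. E-scores, modified Wilcoxon-Mann-Whitney statistics, were given by the Universal PBM Analysis Suite to ungapped eight-base words pooled with their reverse complements after masliner normalisation.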
row,Sequence,PBM E-score
1,GAGTAACA,0.206
2,ATTATGCA,-0.00065
3,AAAGCATG,-0.121
4,CCGGGAAA,0.344
5,GGGAGGGA,0.217
6,GTTGGGTA,-0.179
7,GGAGGCTA,0.0762
8,CCCAAGGC,-0.188
9,ATAATCGC,-0.0195
10,ACATTAAG,-0.0669
11,CCCGCCGA,0.305
12,ACCGGTTA,0.22
13,ACCACGGG,0.205
14,AATTTTAC,-0.0635
15,GTGTTATA,-0.0501
16,CCAAAAAG,-0.0954
17,GCTTCGGA,0.334
18,GATTATGA,0.0307
19,CAAGTTCA,0.175
20,CCGTTCGA,0.13
21,CGCGGCTC,0.344
22,CTGCAGAA,0.0135
23,ATACAGAA,0.125
24,CATGGCGG,0.261

row,Sequence,PBM E-score
1,CCGTGGCG,0.329
2,CCTTAAAG,-0.195
3,AGCTGGTG,0.00678
4,CATTTAGG,-0.239
5,CATAACCC,-0.0023
6,CTTGCAAA,0.0295
7,GAATTGTA,-0.0914
8,AGAAACAA,0.106
9,CAGATGCA,-0.278
10,AACCACGA,0.0125
11,CGATAGCG,0.0636
12,CCAGCGGA,0.181
13,ACTAAATA,0.0546
14,ACGCATGC,0.176
15,CCCTCTTA,-0.145
16,AAGGCTTG,-0.0886
17,CAACGTAC,-0.209
18,CCAAATAC,-0.114
19,ACAACACT,-0.104
20,ACGCCGTA,-0.115
21,GGATGTTA,0.228
22,CTCGGAAA,0.372
23,CTTGCAGA,-0.12
24,CTATAATA,0.0617

row,Sequence,PBM E-score
1,AGGGGTAT,-0.0637
2,CAAGCATA,-0.16
3,GTCGCGGA,0.314
4,AACATAGC,0.107
5,GCATAGGC,-0.289
6,CACATCCA,-0.0451
7,CTGCGGAA,0.357
8,AGCGCGAA,0.188
9,GATATTCA,0.0334
10,AATTAGCT,-0.0267
11,GCCCCCCC,-0.335
12,CTCTCACC,0.0689
13,ACAGCCCT,-0.148
14,CGACATCG,-0.0803
15,GTTATCTA,-0.125
16,GACCAGCA,-0.004
17,AACACCGT,-0.0499
18,TCCTTGAA,-0.149
19,AGGGTTCG,-0.146
20,TATTGACA,-0.147
21,ACGGATAT,0.305
22,CCAGGTCC,-0.00185
23,AGATTCGC,-0.0629
24,ATACCACG,0.129

row,Sequence,PBM E-score
1,ATGGCGTG,-0.0122
2,CCTAGACG,0.012
3,CTAATTTA,-0.142
4,CACTGCAG,-0.0372
5,CGTGTACA,-0.0192
6,CACTTTAA,0.0794
7,ACCAAAGT,-0.0477
8,AACCAGTG,-0.0646
9,CGAAGCAG,-0.0376
10,TTCCTCAA,-0.128
11,ACAGCTGG,-0.217
12,GTAAAAGA,-0.134
13,GAAAGCGC,0.0568
14,GAACCTTC,-0.0845
15,AGTCTCCG,0.331
16,GCTGCCAC,0.0205
17,AAGGACAT,-0.0885
18,GAAAAATA,0.0767
19,ACTGACGA,-0.0697
20,AGATACTC,-0.0215
21,AACACTCA,0.127
22,AGGAGCCA,-0.266
